# Inconclusive results are not listed. Unless noted, calls come from the whole dose curve. For part of its entries the source gives two or more results. The other results are left out here. There may be further records. Values that stand side by side repeat one measurement (runs, samples, wells, individuals or studies). The source holds several records for some structures; these can differ, active in one and inactive in another. Marks in square brackets tell the records apart. The letters are not those of the source and start again with each entry.
# How the values were obtained:
# [1] = biological target: Estrogen receptor (Homo sapiens) (UniProt P03372); test: qHTS assay for small molecule agonists of estrogen receptor alpha signaling (AID 588514); conditions: ER-alpha-UAS-bla HEK293, beta-lactamase ratio, 18 h; series mostly up to 76.8 µM; note: nearly all actives have a fitted effect of over 70% in size; note: potency is the fitted concentration of half-maximal effect
# Chain of UniProt P03372 (P03372 whole entry, looked up): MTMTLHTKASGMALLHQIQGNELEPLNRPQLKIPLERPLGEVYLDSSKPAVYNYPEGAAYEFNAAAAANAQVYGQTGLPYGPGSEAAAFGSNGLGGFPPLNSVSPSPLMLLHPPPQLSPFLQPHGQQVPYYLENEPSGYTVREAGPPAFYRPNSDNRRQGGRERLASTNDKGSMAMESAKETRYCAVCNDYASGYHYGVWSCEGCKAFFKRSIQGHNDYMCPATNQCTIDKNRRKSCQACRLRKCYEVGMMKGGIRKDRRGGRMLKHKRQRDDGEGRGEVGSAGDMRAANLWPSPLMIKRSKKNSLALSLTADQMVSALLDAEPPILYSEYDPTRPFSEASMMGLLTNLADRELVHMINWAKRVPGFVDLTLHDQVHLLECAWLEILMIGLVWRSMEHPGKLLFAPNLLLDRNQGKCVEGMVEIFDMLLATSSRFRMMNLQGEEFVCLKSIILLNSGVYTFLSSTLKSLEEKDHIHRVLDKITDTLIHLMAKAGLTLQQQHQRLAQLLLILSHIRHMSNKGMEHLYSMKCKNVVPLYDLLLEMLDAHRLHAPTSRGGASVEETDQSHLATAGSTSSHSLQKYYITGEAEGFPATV
# In short: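 ER-alpha-UAS-bla GripTite HEK293 cells, 5000/well in 2% charcoal/dextran-stripped FBS medium, treated with compound titrations 18 h at 37 C. CCF4 beta-lactamase read by fluorescence after 2 h RT; normalised to 20 nM 17-beta-estradiol (100%) and DMSO (0%), Hill fit for EC50 and efficacy.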
# [2] = biological target: Retinoic acid receptor RXR-alpha (Homo sapiens) (UniProt P19793); test: qHTS assay for small molecule antagonists of retinoid X receptor alpha signaling (AID 588546; active = well fitted inhibition curve with a large enough effect in the signal ratio, with a control signal flat, not every such curve was filed as active; the % refers to the signal ratio;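 note: cells stimulated with 9-cis-retinoic acid as agonist; % is set by controls: 0 for no effect and ±100 for the full control effect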); conditions: HEK293T RXRa-UAS-bla, beta-lactamase ratio, antagonist mode
# Chain of UniProt P19793 (P19793 whole entry, looked up): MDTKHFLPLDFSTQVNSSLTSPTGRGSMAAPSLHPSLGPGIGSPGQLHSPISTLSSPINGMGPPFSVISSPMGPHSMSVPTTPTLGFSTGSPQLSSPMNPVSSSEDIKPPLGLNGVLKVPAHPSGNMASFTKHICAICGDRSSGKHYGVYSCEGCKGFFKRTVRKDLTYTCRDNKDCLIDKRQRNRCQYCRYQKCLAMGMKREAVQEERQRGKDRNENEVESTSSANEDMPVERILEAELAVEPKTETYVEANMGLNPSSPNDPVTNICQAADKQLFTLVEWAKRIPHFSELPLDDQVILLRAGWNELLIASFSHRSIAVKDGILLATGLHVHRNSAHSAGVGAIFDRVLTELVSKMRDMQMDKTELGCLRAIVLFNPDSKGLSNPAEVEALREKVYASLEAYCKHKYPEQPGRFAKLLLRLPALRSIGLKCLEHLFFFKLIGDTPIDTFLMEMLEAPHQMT
# In short: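 Beta-lactamase reporter inhibition, read as CCF4 fluorescence ratio (ex 405, em 460/530 nm) after 2 h at RT. HEK293T UAS-bla cells, 2500/well, were stimulated with 9-cis-RA at 500 or 100 nM final alongside test compound for 18 h at 37 C.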
# [3] = biological target: Thyroid hormone receptor beta (Homo sapiens) (UniProt P10828); test: qHTS assay for small molecule antagonists of thyroid hormone receptor beta signaling (AID 588547; active = well fitted inhibition curve with a large enough effect in the signal ratio, with a control signal flat, not every such curve was filed as active; the % refers to the signal ratio;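 note: cells stimulated with 0.4 nM T3 agonist during compound exposure; % is set by controls: 0 for no effect and ±100 for the full control effect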); conditions: TR-UAS-bla HEK293, beta-lactamase ratio, antagonist mode, 18 h
# Chain of UniProt P10828 (P10828 whole entry, looked up): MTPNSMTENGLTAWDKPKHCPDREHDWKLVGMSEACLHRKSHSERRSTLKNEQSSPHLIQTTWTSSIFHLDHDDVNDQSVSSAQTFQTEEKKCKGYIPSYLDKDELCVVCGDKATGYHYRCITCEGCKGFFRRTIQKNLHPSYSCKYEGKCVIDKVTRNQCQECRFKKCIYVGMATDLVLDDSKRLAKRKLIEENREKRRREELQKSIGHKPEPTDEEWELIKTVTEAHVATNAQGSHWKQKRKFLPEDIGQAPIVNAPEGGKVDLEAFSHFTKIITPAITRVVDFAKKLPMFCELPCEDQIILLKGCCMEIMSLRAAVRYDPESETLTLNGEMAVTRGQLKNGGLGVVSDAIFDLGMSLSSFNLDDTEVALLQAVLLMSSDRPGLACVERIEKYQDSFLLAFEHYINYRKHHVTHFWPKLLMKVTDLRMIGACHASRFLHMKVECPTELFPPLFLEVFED
# In short: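 TR-UAS-bla GripTite HEK293 cells in 2% charcoal/dextran FBS medium were preincubated 4 h at 37 C, given compound (0.59 nM to 92 uM) plus 0.4 nM T3 (final) for 18 h, then CCF4 for 2 h at RT; Hill fit gave IC50.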
compound,measurement,setting,value
COC(=O)c1ccc(C)cc1,Potency,[1],inactive [sample A] and active: 8.91 µM [sample B]
CC12CCC(CC1=O)C2(C)C (centres undefined),Potency,[1],inactive [sample A] and active: 2 µM [sample B]
c1ccccc1,max response,[2],"inactive: 19.6, 4.36, -4.31, -25.3% [separate samples]"
same,activity change % (negative = inhibition),[3],"inactive: 3.35, -3.59, 9.19, -24.6% [separate samples]"

# Source: PubChem BioAssay (NCATS)
